Hit rate of the full screen: of about 45,000 compounds, about 65 (0.1%) were called active. Calls come from the whole dose curve; as a rule, active = well fitted activation curve with a large enough effect; inconclusive = small, poorly fitted or top-dose-only effect; inactive = no such curve, though single readings can be large or run the other way. The list shows a part of the results.
Target: Galactocerebrosidase (Homo sapiens) (UniProt P54803)
Experiment: A Novel Cell-Based Assay to Identify Small Molecules for B -Galactocerebrosidase; note: 0% is about no effect; nearly all actives have a fitted effect of over 65% in size
Conditions: 145M-Twi-hGALC-G270D cells (Twitcher mouse brain line with human GALC G270D), HMU-beta-Gal fluorescence, 48 h; series mostly up to 57.5 µM; activation: at the top concentration
Outline: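 Fluorescence readout: HMU-β-gal cleavage by mutant GALC (0.1 mM final, citrate/phosphate pH 5.2 with 1 mg/mL taurocholate), stopped with carbonate/bicarbonate plus Triton X-100. Cells: murine Twitcher 145M-Twi expressing human G270D GALC; qHTS for activators.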

UniProt P54803, sequence (P54803 whole entry, looked up): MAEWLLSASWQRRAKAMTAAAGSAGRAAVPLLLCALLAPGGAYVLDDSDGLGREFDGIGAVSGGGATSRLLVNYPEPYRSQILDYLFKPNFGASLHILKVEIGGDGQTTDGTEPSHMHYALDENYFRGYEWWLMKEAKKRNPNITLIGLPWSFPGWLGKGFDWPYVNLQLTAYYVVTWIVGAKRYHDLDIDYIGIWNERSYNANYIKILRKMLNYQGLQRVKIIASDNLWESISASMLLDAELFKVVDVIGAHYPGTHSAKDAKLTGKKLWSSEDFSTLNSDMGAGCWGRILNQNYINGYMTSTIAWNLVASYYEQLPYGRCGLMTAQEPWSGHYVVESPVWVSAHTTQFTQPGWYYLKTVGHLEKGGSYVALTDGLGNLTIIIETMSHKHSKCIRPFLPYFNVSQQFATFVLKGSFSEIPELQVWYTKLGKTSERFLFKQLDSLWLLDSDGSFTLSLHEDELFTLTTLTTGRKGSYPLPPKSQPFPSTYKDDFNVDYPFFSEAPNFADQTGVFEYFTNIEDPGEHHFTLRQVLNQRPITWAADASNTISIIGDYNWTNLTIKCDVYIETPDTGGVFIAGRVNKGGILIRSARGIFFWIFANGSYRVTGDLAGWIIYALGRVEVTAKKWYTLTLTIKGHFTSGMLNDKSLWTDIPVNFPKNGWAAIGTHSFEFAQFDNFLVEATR

activation, inactive:
CC(C)c1nn2c(=O)cc(COC(=O)c3ccc4c(c3)OCO4)nc2s1 -3.46%
COC(=O)c1ccc(OCC2c3cc(OC)c(OC)cc3CCN2C(=O)Cc2ccc(OC)c(OC)c2)cc1 (stereo not drawn) -15.5%
Cn1cc(-c2cc3n(n2)CCC(=O)N3CCCC(=O)NCc2ccccc2)c2ccccc21 -14.3%
COc1ccc(CNC(=O)CN(C)S(=O)(=O)c2ccc3[nH]c4c(c3c2)CCCC4)cc1 1.29%
CCOC(=O)C1CCC(CN(Cc2ccc(OC)cc2)S(=O)(=O)c2ccc(F)c(C(=O)Nc3cc(Cl)ccc3OC)c2)CC1 (stereo not drawn) -12.6%
COc1ccc(NC(=O)Cc2ccc(NC(=O)N3CCCCc4ccccc43)cc2)c(OC)c1 -7.96%
CCN(CC)CCNC(=O)Cn1cnc2sc(C)c(S(=O)(=O)N3CCC(C)CC3)c2c1=O -13%
CC(C)c1ccc(NC(=O)c2cc(S(=O)(=O)NCCC3=CCCCC3)ccc2F)cc1 -9.94%
CCc1ccc2occ(CC(=O)NCc3ccccc3)c2c1 -12.8%
COc1ccc(-c2nc3sc(CCNC(=O)c4ccc(C(C)(C)C)cc4)c(C)n3n2)cc1 -11%
CCOc1ccccc1C(=O)Nc1cc2c(cc1C)n(C)c(=O)c(=O)n2C 4.28%
Nc1c(NC/C=C\COc2cc(CN3CCCCC3)ccn2)c(=O)c1=O -13.5% [at 23.8 µM]
CCN1C(=O)c2ccccc2S(=O)(=O)c2ccc(C(=O)NCc3ccc(F)cc3)cc21 5.72%
Cc1ccc(CNC(=O)CN2C(=O)COc3ccc(S(=O)(=O)N4CCC(C)CC4)cc32)cc1 -29%
Cc1ccc(/C=C/C(=O)Nc2ccc(Cl)cc2Cl)cc1 -7.61%
COc1ccc(NC(=O)c2ccc3[nH]c(C)cc(=O)c3c2)cc1 -15.8%
CCCCCCn1c(/C=C/c2ccccc2)nc2ccccc21 -12.2%
Cc1ccc(-n2cc(C(=O)OCc3ccc(Cl)cc3)c3ccccc3c2=O)cc1 -8.31%
Cc1ccc(NC(=O)Cc2coc3c(C)c(C)ccc23)c(C)c1 -16.2%
CC(=O)N[C@@H](CS)C(=O)O -14.6%
CSc1cccc(NC(=O)c2ccc3c(c2)CCCN3S(C)(=O)=O)c1 -14.1%
Cc1ccc(C)c(NC(=O)CN(Cc2ccccc2)S(=O)(=O)c2ccc3nc(C)sc3c2)c1 -11%
c1ccc(N2CCN(c3ncnc4c3nc3n4CCCCC3)CC2)cc1 -11.4%
COC(=O)C1CCN(c2csc3ccc(C)cc3c2=O)CC1 -6.48%
CCN(CCCNC(=O)c1ccc(Sc2ccc(Cl)cc2)c(NC(C)=O)c1)c1cccc(C)c1 -2.49%
CCc1nn(CCCC(=O)NCc2ccc(OC)c(OC)c2)c(=O)c2cc3occc3n12 -7.14%
NCc1ccccc1Sc1ccccc1CO -17.1%
CCN(CC)c1ccc(-c2nc(-c3ccccn3)no2)cc1[N+](=O)[O-] -14.9%
CN1c2ccccc2-c2nc(SCC(=O)Nc3ccccc3)ncc2S1(=O)=O -25.4%
O=C(CSc1oc(-c2ccco2)nc1S(=O)(=O)c1ccc(Br)cc1)c1ccc(Cl)cc1 -11.6%
COc1cc(C2Oc3nc(SC)nnc3-c3ccccc3N2C(C)=O)cc(Cl)c1OC (stereo not drawn) 3.52%
Cc1cc(Br)ccc1NC(=O)c1sc2ncn(Cc3ccccc3Cl)c(=O)c2c1C -12.4%
Cc1ccc(-n2ncc3c(NCc4ccccc4)ncnc32)cc1C -13.5%
COc1cc(OC)c(NC(=O)CSc2nc3ccncc3[nH]2)cc1Cl -18.9%
CC(NC(=O)C1CCN(C(=O)N2CCOc3ccccc32)CC1)c1ccccc1 (stereo not drawn) -18.4%
CCCNC(=O)Cn1nc(C)c2c(C)n(-c3ccccc3)nc2c1=O -3.81%
CC1=C(C(=O)Nc2cccnc2)C(c2ccc(F)cc2)n2nc(SCc3ccccc3)nc2N1 (stereo not drawn) -13.6%
Cc1cccc(NC(=O)CCS(=O)(=O)c2cc(Br)cc3c2N(C(=O)C2CC2)CC3)c1C -7.75%
CC1CCN(S(=O)(=O)c2cccc(C(=O)N(C)C3(C)CCS(=O)(=O)C3)c2)CC1 (stereo not drawn) -19.1%
CCCCNC(=O)CSc1nc2ccccc2nc1Cc1ccccc1 -10.1%
COc1cccc(N2CCN(C(=O)Cn3ncc4c3-c3ccccc3OC4)CC2)c1 5.33%
Cc1ccc(C(=O)c2cn(CC(=O)Nc3ccc4c(c3)OCCO4)c3nc(C)ccc3c2=O)cc1 -8.73%
CCOc1ccc(Nc2c(S(=O)(=O)c3ccccc3)cnc3ccc(CC)cc23)cc1 -7.12%
CC(C)CCNC(=O)c1ccc(NC(=O)N2CCCCc3ccccc32)cc1 -11.7%
Cc1ccc(N2CC(NC(=O)C3CCCC3)CC2=O)cc1 (stereo not drawn) -17.5%
CN1Cc2cc(C(=O)N3CCC(C4CCNCC4)CC3)ccc2N[C@@H](CC(=O)O)C1=O -14%
CSc1oc(-c2ccc(F)cc2)nc1S(=O)(=O)c1ccc(Br)cc1 -2.31%
CC(C)CC(NC(=O)C1CCC(C)CC1)C(=O)OCC(=O)c1ccc(Cl)cc1 (stereo not drawn) -6.83%
O=C(CSc1nc2ccccc2n1Cc1ccccc1)NCc1ccccc1 -10.2%
Cc1ccc(-c2cc(-c3coc4ccccc4c3=O)c3c(n2)-c2cc(Cl)ccc2OC3)cc1 -16.2%
CC(=O)Nc1ccc(-c2nnc3n(CC(C)C)c(=O)c4ccccc4n23)cc1 -17.6%
Cc1cc(C)cc(NC(=O)NCC2CCN(Cc3cc(C)ccc3C)CC2)c1 -8.22%
COc1ccccc1NC(=O)Cn1c(SCC(=O)NCc2ccccc2)nc2ccccc21 -3.67%
COc1ccc(-c2noc(CSc3nnc(-c4ccncc4)n3-c3cccc(C)c3)n2)cc1OC -11.7%
Cc1ccc(CCNC(=O)CCCn2nc(C)c3c(C)n(-c4ccc(C)cc4)nc3c2=O)cc1 -11.8%
COc1ccc(NC(=O)CCCN2C(=O)C(c3ccccc3)Oc3cccnc32)cc1OC (stereo not drawn) -16.1%
COc1cc(-c2nnc(SCC(=O)N(C)C3CCCCC3)o2)cc(OC)c1OC -28.6%
COc1ccc(CCC(=O)NCCc2csc(-c3cccc(F)c3)n2)cc1 -4.71%
CCc1ccc(OCC2c3cc(OC)c(OC)cc3CCN2C(=O)Cc2ccc(OC)c(OC)c2)cc1 (stereo not drawn) -22%
COc1cc2c(cc1NC(=O)C(C)Oc1ccc(Cl)cc1Cl)oc1ccccc12 (stereo not drawn) -9.14%
COc1ccc(NC(=O)c2oc3ccc4c(c3c2C)C(=O)CC(C)(C)O4)cc1OC -13%
CCOc1ccccc1NS(=O)(=O)c1c(C(=O)OC)sc2cccc(F)c12 8.02%
COc1ccc(OC)c(CCNC(=O)c2sc3nc4n(c(=O)c3c2C)CCCC4)c1 -10.2%
